Data on 29 compounds can be found in the antibiotic and cytotoxicity screens of Wong et al. (2023).

This is one part of the list.

The first experiment concerns HepG2. The experiment can be described thus: cytotoxicity call (relative viability < 0.9). The conditions noted are these: 10 µM.
With `CC(C)(C)S(=O)N1Cc2cc(C(=O)NCc3ccc4c(c3)OCO4)nc(-c3cccc(-c4cccc(F)c4)c3)c2[C@@H]1CCO` (some centres undefined), the cytotoxicity call is “active”.
Still for that read-out and setting: the same measure for `C[C@@H]1CCCCO[C@@H](CN(C)C(=O)c2ccncc2)[C@H](C)CN([C@@H](C)CO)C(=O)c2cc(NC(=O)NC3CCCCC3)ccc2O1`: “inactive”; for `C[C@H](CO)N1C[C@H](C)[C@@H](CN(C)C(=O)Nc2cccc3ccccc23)Oc2ccc(NC(=O)CCC(F)(F)F)cc2C1=O`: “inactive”.
As to `C[C@H](CO)N1C[C@H](C)[C@@H](CN(C)S(=O)(=O)c2ccc(F)cc2)OCCCC[C@H](C)Oc2ccc(NS(C)(=O)=O)cc2C1=O`, the cytotoxicity call was “inactive”.

The test system of the next experiment is S. aureus RN4220. The experiment in a line: growth inhibition call (relative growth <= 0.2). As to conditions: 50 µM.
Turning to `C[C@@H]1CCCCO[C@@H](CN(C)C(=O)Nc2cccc3ccccc23)[C@H](C)CN([C@@H](C)CO)C(=O)c2cc(NC(=O)c3ccccc3)ccc2O1`, the growth inhibition call is “inactive”.
`C[C@@H]1CCCCO[C@H](CN(C)C(=O)C2CCCCC2)[C@@H](C)CN([C@@H](C)CO)C(=O)c2cc(NS(=O)(=O)c3ccc(F)cc3)ccc2O1`: the growth inhibition call is “inactive”.
Consider `COCC#Cc1cnc2c(c1)C(=O)N([C@H](C)CO)C[C@H](C)[C@@H](CN(C)C(=O)c1ccc3c(c1)OCO3)O2`, for which the growth inhibition call was “inactive”.
As to `CC(C)C#Cc1ccc2c(c1)O[C@@H](CN(C)C(=O)c1cccc(F)c1)[C@@H](C)CN([C@@H](C)CO)S2(=O)=O`, the growth inhibition call was “inactive”.
As to `CN(C)CCCNC(=O)C[C@@H]1CC[C@@H]2[C@@H](COc3ccc(NC(=O)c4ccccc4F)cc3C(=O)N2C)O1`, the growth inhibition call is “inactive”.
Same read-out and setting: the same measure for `Cc1cn(Cc2ccccc2)c(=O)[nH]c1=O`: “inactive”; for `COc1ccc2c3c([nH]c2c1)[C@@H](CO)N(C[C@]13CCN(CC1)S(=O)(=O)C)C(=O)Nc1ccc(cc1)F`: “inactive”.
Still for that read-out and setting: under `CO[C@H]1O[C@H]2CO[C@H]([C@@H]1O)[C@@H]2O` stands “inactive”; under `C[C@@H]1CN([C@@H](C)CO)C(=O)c2cc(NC(=O)Nc3cccc4ccccc34)ccc2O[C@H]1CN(C)Cc1ccc(C(F)(F)F)cc1`, “inactive”; under `COC1=C(OC)C(=O)C(CCCCCCCCCCO)=C(C)C1=O`, “inactive”.
`COc1ccc2nccc(Cl)c2c1`: the growth inhibition call is “inactive”.
The same measure, in the same setting: under `C[C@H]1CN([C@@H](C)CO)C(=O)Cc2cc(NS(=O)(=O)c3ccc(F)cc3)ccc2O[C@@H]1CN(C)Cc1ccncc1` stands “inactive”.
The same measure, in the same setting: under `C/C=C1\NC(=O)[C@H]2CSSCC/C=C/[C@H](CC(=O)N[C@H](C(C)C)C(=O)N2)OC(=O)[C@H](C(C)C)NC1=O` stands “inactive”.
On the same count and under the same terms, the same measure for `COc1ccc(S(=O)(=O)N(C)C[C@@H]2Oc3c(NS(=O)(=O)c4c(C)noc4C)cccc3C(=O)N([C@@H](C)CO)C[C@@H]2C)cc1`: “inactive”.
In the case of `C[C@@H]1CCCCO[C@H](CN(C)CC2CC2)[C@H](C)CN([C@@H](C)CO)C(=O)c2cc(NC(=O)C3CCCCC3)ccc2O1`, the growth inhibition call was “inactive”.
Still for that read-out and setting: under `c1ccc(Oc2cccc(Oc3ccccc3)c2)cc1` stands “inactive”.
With `Cc1noc(C)c1NC(=O)N(C)C[C@@H]1Oc2ccc(NC(=O)NC(C)C)cc2CC(=O)N([C@@H](C)CO)C[C@@H]1C`, the growth inhibition call was “inactive”.
Same read-out and setting: the same measure for `C[C@@H]1CN([C@H](C)CO)C(=O)Cc2cc(NC(=O)CCCCCC(=O)Nc3ccccc3N)ccc2O[C@@H]1CN(C)CC1CCCCC1`: “inactive”; for `CC[C@H]1OC(=O)C[C@@H](O)[C@H](C)[C@@H](O[C@@H]2O[C@H](C)[C@@H](O)[C@H](N(C)C)[C@H]2O)[C@@H](CCN2C[C@H](C)C[C@H](C)C2)C[C@@H](C)C(=O)/C=C/C(C)=C/[C@@H]1CO[C@@H]1O[C@H](C)[C@@H](O)[C@@H](OC)[C@H]1OC`: “active”; for `C[C@@H]1CN([C@@H](C)CO)C(=O)c2cccc(NC(=O)C3CCOCC3)c2O[C@@H]1CN(C)S(=O)(=O)c1cccs1`: “inactive”.
Consider `CC(=O)N1CCO[C@H]2CN(S(=O)(=O)c3cccnc3)C[C@@H]2C1`, for which the growth inhibition call was “inactive”.
With `CO[C@@H]1CN(C)C(=O)c2ccc(NC(C)=O)cc2OC[C@@H](C)N(S(=O)(=O)c2cn(C)cn2)C[C@H]1C`, the growth inhibition call was “inactive”.
On the same count and under the same terms, under `COc1ccc(NC(=O)Nc2cccc3c2O[C@H](CN(C)C(=O)Nc2ccc(C(F)(F)F)cc2)[C@H](C)CN([C@@H](C)CO)C3=O)cc1` stands “inactive”.
Consider `O=C(C[C@@H]1CC[C@H]2[C@@H](COC[C@@H](O)CN2C(=O)Nc2cccc(F)c2)O1)NCCCN1CCOCC1`, for which the growth inhibition call was “inactive”.
In the case of `C[C@H]1CN([C@@H](C)CO)C(=O)c2cc(NC(=O)C3CCCCC3)ccc2O[C@@H]1CN(C)Cc1ccc(-c2ccccc2)cc1`, the growth inhibition call was “inactive”.
